Measurements published in PubChem BioAssay AID485364 (National Center for Advancing Translational Sciences (NCATS), 2010).
Hit rate of the full screen: of about 360,000 compounds, about 11,000 (3.1%) were called active. This list was built around the results that the source calls inconclusive (neither active nor inactive); the mix of calls is not that of the screen. The call rests on the fitted dose curve; in most records, active means well fitted inhibition curve with a large enough effect; inconclusive means small, poorly fitted or top-dose-only effect; inactive means no such curve, though single readings can be large or run the other way. Potencies of inconclusive entries are left out as doubtful fits.

Biological target: Schistosoma mansoni thioredoxin glutathione reductase (TGR) (UniProt Q962Y6)
Test: qHTS Assay for the Inhibitors of Schistosoma Mansoni Peroxiredoxins; further: nearly all actives have a fitted effect of over 60% in size
Conditions: purified TGR, DTNB reduction, TNB absorbance 405 nm; activity change, negative = inhibition: at 114 µM (top of the series) unless noted
How it was run: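 Kinetic colorimetric format: TGR-catalysed, NADPH-driven DTNB reduction monitored via TNB absorbance. Enzyme dispensed at 20 nM; compound exposure 15 min at room temperature before reaction start.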
On the % scale 0 is the no-effect control and ±100 the full control effect; potency means the concentration at half of the fitted maximal effect; tags describe the fitted curve by direction and shape.

| SMILES | Potency | activity change, negative = inhibition |
| --- | --- | --- |
| O=C(NCc1ccccc1)c1ccc(-c2ccccc2C(F)(F)F)o1 | inconclusive [inhibitor, partial curve] |  |
| CC(=O)Cc1nsc(NC(=O)c2ccc(-c3cccc(Cl)c3)o2)n1 | inconclusive [inhibitor, partial curve] |  |
| Cc1ccc(-n2c([S-])c(C(=O)Nc3ccc(OC(F)F)cc3)[n+]3ccc(C(=O)NCCO)cc23)cc1C | inconclusive [inhibitor, partial curve] |  |
| COC(=O)C(CC(=O)c1ccc(Br)cc1)n1cccn1 (centres undefined) | active: 4.47 µM |  |
| CC(=O)c1cccc(NC(=O)c2ccc(-n3c(C)nnc3C)cc2)c1 |  | inactive: -2.08% |
| COc1ccc(C(=O)c2c3ccccc3[n+]([O-])n2CCCN)cc1 | inconclusive [inhibitor, partial curve] |  |
| CN(C)CCNC(=O)Nc1cccc(Cl)c1Cl | inconclusive [inhibitor, partial curve] |  |
| Cc1ccccc1NCC(=O)N/N=C\c1ccc([N+](=O)[O-])s1 | inconclusive [inhibitor, full curve] |  |
| O=C(NCc1nnnn1-c1ccc(F)cc1)c1ccc([N+](=O)[O-])o1 | inconclusive [inhibitor, partial curve] |  |
| CC(=O)Nc1ccc(NC(=S)Nc2ccc(Br)cc2)cc1 | inconclusive [inhibitor, full curve] |  |
| CSCc1ccc(C(=O)NC(C)c2cnn(-c3ccccn3)c2C)o1 (centres undefined) | inconclusive [inhibitor, partial curve] |  |
| CCN1C(=O)[C@@H]2[C@@H](c3ccc(-c4ccc(C(C)=O)cc4)c(OC)c3)N3CCC[C@@]3(C(=O)OC)[C@@H]2C1=O | inconclusive [inhibitor, full curve, poor fit] |  |
| COc1ccc(C2CC(=O)C(C(c3ccc(O)cc3)C3C(=O)CC(c4ccc(OC)cc4)CC3=O)C(=O)C2)cc1 (centres undefined) | inconclusive [inhibitor, partial curve] |  |
| Cc1ccc(OCC(=O)Nc2ccccc2C(N)=O)cc1 |  | inactive: -20% |
| CCc1nn(CC(=O)N2CCN(c3ccc(F)cc3)CC2)c(=O)c2cc3occc3n12 | inconclusive [inhibitor, single point] |  |
| O=C(c1ccc(CS(=O)Cc2ccccc2Cl)o1)N1CCN(c2cccc(Cl)c2)CC1 (centres undefined) | inconclusive [inhibitor, partial curve] |  |
| COc1ccc2[nH]c(=O)c(CN(Cc3ccc(C)cc3)Cc3nnnn3CC3CCCO3)cc2c1 (centres undefined) | inconclusive [inhibitor, partial curve] |  |
| COc1cccc(N2CCN(CC(=O)c3c[nH]c4ccc(OC)cc34)CC2C)c1 (centres undefined) | inconclusive [inhibitor, full curve, poor fit] |  |
| Cc1cc(N)n(-c2ccc([N+](=O)[O-])cc2)n1 |  | inactive: 7.11% |
| CCCCn1c(O)c(C=NC2CC3CCC2(C)C3(C)C)c(=O)[nH]c1=O (centres undefined) |  | inactive: -13.3% |
| O=C1CN(S(=O)(=O)c2cccc(Cl)c2Cl)c2ccccc2N1 |  | inactive: -6.39% |
| COc1ccc(-c2cc3c(=O)n(CC(=O)Nc4ccc(Cl)cc4)ncn3n2)cc1 | inconclusive [inhibitor, full curve, poor fit] |  |
| CCCCC1=CC2=C(c3ccco3)C(=O)C(C)(OC(=O)c3ccc(OC)cc3)C(=O)C2=CN1CCCCO (centres undefined) | inconclusive [inhibitor, partial curve] |  |

| SMILES | Potency | activity change, negative = inhibition |
| --- | --- | --- |
| O=C(NC(=S)NCc1ccccc1)C1CCCCC1 | inconclusive [inhibitor, partial curve] |  |
| Cc1ccc(-c2nn3c(C)nnc3s2)cc1NC(=O)c1ccc(-c2ccc(Cl)cc2Cl)o1 | inconclusive [inhibitor, partial curve] |  |
| Cc1ccc(NC(=S)/C(=C(\[O-])c2ccc(Cl)s2)[n+]2cccc(CO)c2)cc1C | inconclusive [inhibitor, partial curve] |  |
| CCOc1cccc(=O)c2c(C)n(Cc3ccco3)c(C)c12 | active: 39.8 µM |  |
| COC(=O)Cn1c(=O)c(C(=O)CCl)c(N)n(Cc2ccccc2)c1=O | inconclusive [inhibitor, full curve] |  |
| COC(=O)N1C(=O)[C@](c2ccccc2)(C2CCCCC2)N1C(=O)OC | active: 5.01 µM |  |
| COc1nc(-c2ccc(C)cc2)ccc1-c1noc(-c2ccco2)n1 |  | inactive: -31.2% |
| COc1ccc(S(=O)(=O)NNC(=O)c2ccc(-n3c(C)ccc3C)cc2)cc1 | active: 10 µM |  |
| CC(C)N(Cc1ccccc1)C(=O)CCS(=O)(=O)c1ccc2c(c1)oc(=O)n2C | inconclusive [inhibitor, partial curve] |  |
| Cc1ccc(NC(=O)c2cc(NC(=O)CCC(=O)O)ccc2N2CCCCC2)cc1 | inconclusive [inhibitor, full curve, poor fit] |  |
| COc1ccc(CCNC(=O)CC2SC(=NCc3ccccc3)NC2=O)cc1 (centres undefined) | inconclusive [inhibitor, partial curve] |  |
| COC(=O)CCCCCNC(=S)Nc1ccc2[nH]c(=O)[nH]c2c1 | inconclusive [inhibitor, partial curve] |  |
| Cc1ccc(-c2nc(CS(=O)CC(=O)NC3CCCC(C)C3C)c(C)o2)cc1 (centres undefined) | active: 44.7 µM |  |
| Nc1nc(CSc2nc3ccccc3s2)nc(N2CCCCC2)n1 |  | inactive: 0.811% |
| CC(=O)NCCn1c(SCc2ccc(C)cc2)nc2ccccc2c1=O | inconclusive [inhibitor, full curve, poor fit] |  |
| C=CCN1C(=O)/C(=C/c2cc(C)n(-c3ccccn3)c2C)C(=O)NC1=S | inconclusive [inhibitor, partial curve] |  |
| CCC(=O)c1c(O)n(C2CCCCCC2)c(=O)[nH]c1=O | inconclusive [inhibitor, full curve] |  |
| COc1cccc(NC(=O)CNCc2ccccc2)c1 |  | inactive: 6.71% |
| CCOC(=O)CSc1nc2cc3c(cc2cc1C#N)OCO3 | inconclusive [inhibitor, single point] |  |
| CC(C)OCCCNc1ncnc2c1[nH]c1ccccc12 |  | inactive: 2.26% |
| O=C1NC(=O)N(c2ccc3c(c2)OCO3)C(=O)/C1=C/c1cccs1 | inconclusive [inhibitor, full curve, poor fit] |  |
| Nc1nc(Nc2ccccc2)nc(NC2CCCCC2)c1[N+](=O)[O-] |  | inactive: 5.63% |
| CCCCNC(=O)/C(=C\c1ccc([N+](=O)[O-])o1)NC(=O)c1ccccc1 | active: 44.7 µM |  |

| SMILES | Potency | activity change, negative = inhibition |
| --- | --- | --- |
| N#Cc1c(/N=C/C2C(=O)NC(=S)NC2=O)sc2c1CCCC2 | inconclusive [inhibitor, full curve] |  |
| O=C(O)c1ccccc1C(=O)Nc1ccccn1 |  | inactive: 1.13% |
| COc1ccc(S(=O)(=O)Cc2ccc(C(=O)N3CCc4ccccc4C3)o2)cc1 | active: 20 µM |  |
| CC(C)C(=O)NC(=S)Nc1ccc(S(=O)(=O)N2CCCC2)cc1 | inconclusive [inhibitor, partial curve] |  |
| O=C1/C(=C/c2ccccn2)SC(=S)N1N1CCOCC1 | inconclusive [inhibitor, full curve] |  |
| Cc1ccc(/C([O-])=C(/C(=S)NCc2ccco2)[n+]2ccccc2)cc1[N+](=O)[O-] | inconclusive [inhibitor, partial curve] |  |
| O=C(Nc1c(C(=O)Nc2ccccc2F)oc2ccccc12)c1cc2ccccc2o1 |  | inactive: 2.3% |
| Cc1cc(Cl)ccc1OCCn1cncn1 |  | inactive: -7.12% |
| CCc1sc(C(=O)N2CCc3cc(OC)c(OC)cc3C2CC(=O)O)cc1C (centres undefined) | inconclusive [inhibitor, partial curve] |  |
| Cc1cccc(N(C)C(=O)CCNS(=O)(=O)c2ccc3c(c2)CCN3C(=O)C2CC2)c1 | inconclusive [inhibitor, partial curve] |  |
| CC(=O)N(c1ccccc1)c1ccc([N+](=O)[O-])cc1[N+](=O)[O-] | inconclusive [inhibitor, partial curve] |  |
| CCn1c(SCC(=O)Nc2ccc(-c3nc4ccc(C)cc4s3)cc2)nnc1-c1ccccc1 |  | inactive: -29.4% |
| CC(=O)C1=C(c2ccccc2)OC(N)=C(C#N)C1c1ccc(O)cc1 (centres undefined) | inconclusive [inhibitor, partial curve, poor fit] |  |
| N#C/C(=C(/O)CSc1ccccn1)c1nc2ccccc2s1 |  | inactive: -24.4% |
| Cc1cccc(N2C(=O)CC(Sc3nnc(C)s3)C2=O)c1 (centres undefined) | active: 3.55 µM |  |
| CCCCCCCCOC(=O)c1ccc(N)cc1 |  | inactive: -1.5% |
| Cc1cc(C(=O)COC(=O)CCCN2C(=O)c3ccccc3C2=O)c(C)n1C | inconclusive [inhibitor, partial curve] |  |
| O=C1CC(c2ccco2)CC(O)=C1C=NCC1CCNCC1 (centres undefined) | inconclusive [inhibitor, partial curve] |  |
| Cc1cc2cc(CNC(=O)c3ccc(S(=O)(=O)N4CCOCC4)cc3)ccc2[nH]1 | inconclusive [inhibitor, partial curve, poor fit] |  |
| COc1ccc(NC(=S)N/C(=N/CS(=O)(=O)c2ccccc2)c2ccccc2)cc1 | active: 39.8 µM |  |
| COc1cccc(CNCc2cccc(Br)c2)c1OC | inconclusive [inhibitor, partial curve] |  |
| COc1cc(C(C[N+](=O)[O-])c2c(C)[nH]c3ccccc23)ccc1O (centres undefined) | inconclusive [inhibitor, partial curve] |  |
| COc1cccc(C2/C(=C(\O)c3ccc4c(c3)OCCO4)C(=O)C(=O)N2CCCN2CCOCC2)c1OC (centres undefined) | inconclusive [inhibitor, full curve] |  |
